In patent US8975247B2, “Methods and compositions of treating a flaviviridae family viral infection” (priority 2009, dated 2015):

Legend:
[1] = MTT assay for HCV replicon reporter cell lines (cell toxicity); conditions: human
[2] = molecular target: hERG channel (Homo sapiens (Human), UniProt Q12809); assay: hERG channel assay (whole cell patch clamp)
Sequence of hERG channel (Q12809 whole entry): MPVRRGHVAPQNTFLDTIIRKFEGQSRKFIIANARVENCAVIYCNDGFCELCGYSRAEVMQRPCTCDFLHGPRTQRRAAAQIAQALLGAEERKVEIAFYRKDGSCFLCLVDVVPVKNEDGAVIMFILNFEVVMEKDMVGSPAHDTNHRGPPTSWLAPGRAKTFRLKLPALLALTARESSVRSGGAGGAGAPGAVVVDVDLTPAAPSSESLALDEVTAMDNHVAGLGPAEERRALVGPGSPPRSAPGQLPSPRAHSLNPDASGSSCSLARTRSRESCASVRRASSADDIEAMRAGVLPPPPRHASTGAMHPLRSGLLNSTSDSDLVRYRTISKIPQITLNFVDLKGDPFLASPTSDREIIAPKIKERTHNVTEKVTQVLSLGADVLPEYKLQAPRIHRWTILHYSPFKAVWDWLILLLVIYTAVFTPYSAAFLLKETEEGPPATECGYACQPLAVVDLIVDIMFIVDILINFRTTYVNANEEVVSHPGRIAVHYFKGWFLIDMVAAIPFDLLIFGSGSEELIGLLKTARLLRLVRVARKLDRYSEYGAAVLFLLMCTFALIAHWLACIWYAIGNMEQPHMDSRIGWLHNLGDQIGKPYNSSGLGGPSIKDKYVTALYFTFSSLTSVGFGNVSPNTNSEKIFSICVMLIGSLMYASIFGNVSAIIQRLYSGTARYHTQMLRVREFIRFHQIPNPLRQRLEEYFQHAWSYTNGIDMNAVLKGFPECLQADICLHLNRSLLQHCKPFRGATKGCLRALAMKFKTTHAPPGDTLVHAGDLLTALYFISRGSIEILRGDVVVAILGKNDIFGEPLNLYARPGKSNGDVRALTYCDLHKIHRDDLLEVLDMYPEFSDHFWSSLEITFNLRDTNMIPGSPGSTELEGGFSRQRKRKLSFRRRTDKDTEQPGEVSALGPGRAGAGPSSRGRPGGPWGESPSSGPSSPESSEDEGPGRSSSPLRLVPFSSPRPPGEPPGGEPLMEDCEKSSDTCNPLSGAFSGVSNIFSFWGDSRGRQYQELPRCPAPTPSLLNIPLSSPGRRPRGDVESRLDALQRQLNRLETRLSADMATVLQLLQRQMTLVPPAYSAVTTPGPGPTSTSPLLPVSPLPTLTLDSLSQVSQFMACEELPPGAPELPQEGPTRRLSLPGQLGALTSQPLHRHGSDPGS

Q: Which EC50 at 48 h [1] does the source give for `Cc1cc2nc(CC3CCCCC3)n(Cc3ccc(Cl)cc3)c2cc1C` [EBP468] here?
A: Its EC50 at 48 h is greater than 25 µM.

Q: And the IC50 [2]?
A: Its IC50 is greater than 10 µM.
